In all, about 310,000 compounds went through this assay and about 14,000 (4.5%) showed an effect of 50% or more. Effects have a minus sign here. The list shows a part of the results.
What follows are compounds tested against human ether-à-go-go-related gene (hERG) potassium channel (human, UniProt Q12809) (assay: primary screen, population patch clamp on CHO cells stably expressing hERG).
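Note: peak tail current of the secondary pulse compared with the same well before compound.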

Chain of human ether-à-go-go-related gene (hERG) potassium channel (Q12809 whole entry, looked up): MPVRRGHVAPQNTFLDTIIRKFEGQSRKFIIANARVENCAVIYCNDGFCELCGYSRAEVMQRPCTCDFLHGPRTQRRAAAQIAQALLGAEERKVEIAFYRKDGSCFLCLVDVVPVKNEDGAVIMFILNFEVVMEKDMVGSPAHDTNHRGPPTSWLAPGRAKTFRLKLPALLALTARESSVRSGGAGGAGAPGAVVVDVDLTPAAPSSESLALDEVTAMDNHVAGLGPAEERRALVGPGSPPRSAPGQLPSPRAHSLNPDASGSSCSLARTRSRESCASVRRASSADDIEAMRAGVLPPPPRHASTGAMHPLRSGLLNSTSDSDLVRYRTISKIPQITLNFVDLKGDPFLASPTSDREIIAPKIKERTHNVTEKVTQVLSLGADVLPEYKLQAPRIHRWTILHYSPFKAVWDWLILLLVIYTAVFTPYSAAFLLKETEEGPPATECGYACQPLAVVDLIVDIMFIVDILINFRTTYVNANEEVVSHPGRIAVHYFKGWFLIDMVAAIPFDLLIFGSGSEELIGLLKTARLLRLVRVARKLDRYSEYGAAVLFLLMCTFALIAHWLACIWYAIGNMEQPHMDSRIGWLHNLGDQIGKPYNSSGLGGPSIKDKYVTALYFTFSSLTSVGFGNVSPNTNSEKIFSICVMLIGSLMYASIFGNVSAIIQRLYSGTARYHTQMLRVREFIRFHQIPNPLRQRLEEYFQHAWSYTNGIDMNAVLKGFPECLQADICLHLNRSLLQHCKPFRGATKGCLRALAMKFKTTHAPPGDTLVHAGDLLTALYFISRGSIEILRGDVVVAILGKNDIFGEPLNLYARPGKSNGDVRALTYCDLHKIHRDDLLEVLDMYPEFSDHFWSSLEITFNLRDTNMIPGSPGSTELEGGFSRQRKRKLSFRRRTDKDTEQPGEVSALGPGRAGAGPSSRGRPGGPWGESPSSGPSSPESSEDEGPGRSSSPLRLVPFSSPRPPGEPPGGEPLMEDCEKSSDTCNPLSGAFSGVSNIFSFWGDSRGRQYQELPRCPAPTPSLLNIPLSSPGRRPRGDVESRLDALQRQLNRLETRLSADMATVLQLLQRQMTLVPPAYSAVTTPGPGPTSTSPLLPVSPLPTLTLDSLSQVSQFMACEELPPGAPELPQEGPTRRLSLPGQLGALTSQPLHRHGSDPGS

Row | Structure (SMILES) | hERG current change (%, negative = inhibition) at 10uM
1 | CC1=CC2=NC(=O)CC(C)(C(=O)N(CC(=O)NC3CCCC3)c3ccccc3C)N2C=C1 (centres unmarked) | 6.24%
2 | CN1C(=O)C(=Cc2ccc(N3CCOCC3)o2)C(=O)N(C)C1=S | -21.2%
3 | C/C(=N\NC(=O)c1cc(-c2ccc(O)cc2)nc2ccccc12)c1cccnc1 | 11.7%
4 | O=C(NC(=S)Nc1ccc(S(=O)(=O)N2CCCCC2)cc1)c1ccc(Cl)cc1 | 20.9%
5 | COc1cccc(NC(=O)Cn2nnc(C(=O)NCc3ccc4c(c3)OCO4)c2N)c1 | 18.3%
6 | CC(C)OCCCNC(=O)Cc1ccc(F)cc1 | 3.48%
7 | Cc1ccccc1-n1ncc2c1CC(C)(C)CC2NC(=O)CCC1=NNC(=O)CC1 (centres unmarked) | -75.9%
8 | O=C(NC(=S)NCC1CCCO1)c1ccco1 (centres unmarked) | 1.71%
9 | COC(=O)C1=C(c2ccc(F)cc2OCc2ccccc2)C[C@@H]2CC[C@H]1N2C(=O)NCc1cccc(OC)c1 | 2.72%
10 | CC(OC(=O)c1cc2sccc2n1C)C(=O)NCc1ccc(F)cc1 (centres unmarked) | -4.67%
11 | Cc1noc(NS(=O)(=O)c2ccc(NC(=O)CSc3nc4ccccc4[nH]3)cc2)c1C | -12.7%
12 | Cc1onc(-c2ccccc2)c1-c1nc2ccccc2c(=O)o1 | 23.8%
13 | CC1CCCCN1CC(=O)Nc1ccccc1Sc1ccccc1 (centres unmarked) | -4.77%
14 | CN1CCN(C(=O)CC2(CC(=O)O)CCCC2)CC1.Cl | -1.66%
15 | COc1cccc(-n2nnc3c(=O)n(Cc4c(F)cccc4Cl)cnc32)c1 | -1.4%
16 | O=C1CCc2cc(S(=O)(=O)NCCCC(=O)N3CCN(Cc4ccc5c(c4)OCO5)CC3)ccc2N1 | -0.149%
17 | C=CCNC(=O)CN1CCC(n2c(C)nc3cc(C(F)(F)F)ccc32)CC1 | -62.1%
18 | CC1(C)Cc2c(c(N3CCOCC3)nc3sc(C#N)c(N)c23)CS1 | 10.2%
19 | COc1ccc(OC)c(NC(=S)N(CCc2c(C)[nH]c3ccc(C)cc23)Cc2cccs2)c1 | 4.8%
20 | CCSc1nnc(NC(=O)CC(C)C)s1 | 21.8%
21 | Cl.Nc1ccc2nc(C3CCCCC3)[nH]c2c1 | 8.03%
22 | CCOc1ccc(Cn2c(SCCCCC#N)nc3c2c(=O)n(C)c(=O)n3C)cc1OCC | -43.8%

Row | Structure (SMILES) | hERG current change (%, negative = inhibition) at 10uM
23 | COc1cccc(CNC(=O)CCn2c(=O)c3cccn3c3cccnc32)c1 | -10.1%
24 | CC(=O)C1=C(C)OC(N)=C(C#N)C1c1cc2cccc(C)c2nc1Cl (centres unmarked) | -8.82%
25 | Cc1cc(N2C(=O)C(O)=C(C(=O)c3ccco3)C2c2ccc(Cl)cc2)no1 (centres unmarked) | -6.77%
26 | O=C(O)Cn1nnnc1SCC(=O)Nc1ccccc1F | 16.2%
27 | COc1cc(C)nc(NS(=O)(=O)c2ccc(C)cc2)n1 | 10.5%
28 | Cc1ccc(NC(=S)N/N=C/c2c(C)[nH]c3ccccc23)cc1 | 19.8%
29 | CC1CN(C(=S)Nc2ccc(Br)cc2)CC(C)O1 (centres unmarked) | 17.7%
30 | O=C(O)COc1ccc(/C=C2\SC(=Nc3ccccc3)N(c3ccccc3)C2=O)cc1 | 14.5%
31 | CCOc1ccc(-c2nc(C)sc2CC(=O)O)cc1 | 11%
32 | O=C(N/C=N/OCc1cccc(C(F)(F)F)c1)N1OC[C@@H]2COc3ccc4ccccc4c3[C@@H]21 | 17.4%
33 | C/C(=N\NC(=O)c1ccc(-c2ccccc2)cc1)C1C(=O)c2ccccc2C1=O | 23.7%
34 | COc1ccc(NC(=O)CSc2nc3c(c(=O)[nH]2)CCC3)cc1OC | 6.73%
35 | CNC(=O)CCc1nc(-c2ccc(C(C)(C)C)cc2)no1 | -1.08%
36 | COc1cc(C2N(c3ccc(Cl)cc3)C(=O)C3CCCN32)cc(OC)c1OC (centres unmarked) | 0.883%
37 | CC1CC(=O)N(C)c2ccc([N+](=O)[O-])cc2N1 (centres unmarked) | -4.75%
38 | Cc1cc(NC(=O)CSc2nc(-c3ccc(Cl)cc3)cs2)no1 | -5.45%
39 | Cc1ccc(NCc2ccccc2F)cc1 | 0.973%
40 | N#CC(c1cccc(C(F)(F)F)c1)(c1ncc(C(F)(F)F)cc1Cl)N1CCOCC1 (centres unmarked) | 4.46%
41 | C=CCNC(=S)NNC(=O)c1ccc2c(c1)OCO2 | -7.24%
42 | CC(=O)c1cccc(NC(=O)CCOc2ccccc2)c1 | 6.88%
43 | COc1ccccc1N1C(=O)c2ccc(C(=O)Nc3ccc(C(=O)O)cc3)cc2C1=O | 13%
44 | CCN(CC(=O)Nc1ccc(Br)cc1F)CC(=O)NC1CCS(=O)(=O)C1 (centres unmarked) | -6.88%

Row | Structure (SMILES) | hERG current change (%, negative = inhibition) at 10uM
45 | Cc1cccc2[nH]c(SCC(=O)N3CCOCC3)nc12 | 9.18%
46 | O=C(Cn1ncc2c1-c1ccccc1OC2)N1CCN(Cc2ccccc2)CC1 | -68.5%
47 | O=C1Nc2cc(C(=O)N3CCc4ccccc4C3)ccc2S/C1=C\c1ccccc1 | -5.33%
48 | O=C(NCc1csc(-c2ccccc2)n1)c1ccco1 | -40%
49 | CCSc1nc2c(c(=O)n1Cc1ccccc1)SC(C)C2 (centres unmarked) | -25%
50 | COc1ccc(-c2cc(C(=O)N/N=C/c3ccc4c(c3)OCO4)c3ccccc3n2)c(OC)c1 | 12%
51 | Cc1ccc(CNC(=O)C2CCCN(S(=O)(=O)c3ccc(F)cc3)C2)cc1 (centres unmarked) | -27.2%
52 | Cc1c(C(=O)O)oc2c1C(O)CCC2 (centres unmarked) | 0.768%
53 | COc1ccc(CCC(=O)N(c2nnc(-c3cccnc3)s2)C(C)C)cc1.Cl | -49.6%
54 | COc1ccc(CCNC(=O)c2ccc(N(C)S(=O)(=O)c3ccc(C)cc3)cc2)cc1 | -10.4%
55 | O=C(Nc1nccs1)c1ccc2ccccc2c1 | 20.9%
56 | CN1CCN(S(=O)(=O)c2ccc(NC(=O)c3ccc(Br)o3)cc2)CC1 | -25.6%
57 | Cc1ncc([N+](=O)[O-])n1Cc1ccccc1F | 2.98%
58 | COc1ccc2c(c1)c(CC(=O)Nc1ccc(C(C)=O)cc1)c(C)n2C(=O)c1ccc(Cl)cc1 | 1.03%
59 | Cc1cc(OCC(=O)Nc2ccc3oc(-c4ccncc4)nc3c2)ccc1Cl | -6.44%
60 | CCOc1ccc(-c2ccc(SC)nn2)cc1 | 9.3%
61 | O=C1C=C(c2ccc(F)c(Cl)c2)C[C@@H](c2ccc(F)cc2)C1 | 0.783%
62 | CCn1c(=N)n(CC(O)c2cccs2)c2ccccc21.Cl (centres unmarked) | -60.4%
63 | COc1ccc(/C=C(\NC(=O)c2cccs2)C(=O)Nc2ccc(C)cc2)cc1OC | 1.34%
64 | Cc1c(Cl)cccc1NC(=O)COC(=O)c1c2c(nc3ccccc13)CCN(Cc1ccccc1)C2 | 2.82%
65 | Cc1cccc(NC(=S)NC2CCN(Cc3ccccc3)CC2)c1C | -18.7%
66 | Cn1c(=O)oc2cc(S(=O)(=O)Nc3ccc(Cl)cc3F)ccc21 | -2.7%

Row | Structure (SMILES) | hERG current change (%, negative = inhibition) at 10uM
67 | CCCCOc1ccc(C(=O)Nc2ccncc2)cc1 | 15.3%
68 | CCOC(=O)C[C@H]1c2ccccc2S(=O)(=O)N1Cc1cc(OC)c(OC)c(OC)c1 | -8.45%
69 | Cc1nn(Cc2ccc(Cl)cc2)c(C)c1NC(=O)c1c(-c2ccccc2)noc1C | -65.1%
70 | O=C(COc1ncnc2ccccc12)N1CCN(S(=O)(=O)c2ccc(Cl)cc2)CC1 | -9.26%
71 | O=C(CNC(=O)c1ccc(Cl)cc1Cl)NCCCn1ccnc1 | 6.31%
72 | COc1cccc(-c2nc(CS(=O)CC(=O)NC3CCCCC3)c(C)o2)c1 (centres unmarked) | -0.124%
73 | CCN(c1cccc(C)c1)S(=O)(=O)c1cnc[nH]1 | 9.23%
74 | CC(C)(C)c1cc(CP(=O)(c2ccccc2)c2ccccc2)cc(C(C)(C)C)c1O | 14.7%
75 | Cc1c(Nc2cc(N3CCCC(C)C3)c3nonc3c2[N+](=O)[O-])c(=O)n(-c2ccccc2)n1C (centres unmarked) | -19.3%
76 | CC(C)Cn1cc(C(=O)NCCCOC(C)C)c2c3ccccc3n(C)c2c1=O | 8.67%
77 | COc1ccccc1CN1CC(C(=O)NCCc2cn[nH]c2)CCC1=O (centres unmarked) | 4.6%
78 | O=C1N=c2ccccc2=C1c1sc(=S)n(-c2ccc(O)cc2)c1O | 16.6%
79 | CCS(=O)(=O)NCCCCc1ccccc1 | -35.4%
80 | Cc1cc(=O)n2c(c1C#N)SC1CCCCC12O (centres unmarked) | 7.75%
81 | CC(C)[C@H](NC(=O)C1CCN(S(=O)(=O)c2ccccc2)CC1)C(=O)NCc1ccccn1 | 18.5%
82 | CCCCCCn1c(CN2CCCCC2CC)nc2c1c(=O)n(C)c(=O)n2C (centres unmarked) | -51.9%
83 | O=C(N/N=C/c1c(O)n(CCc2ccc(F)cc2)c(=O)[nH]c1=O)c1ccccc1 | -2.63%
84 | CC(C)[C@@H]1CC[C@@H](C)c2c(-c3ccccc3)n[nH]c21 | 10.9%
85 | COc1cc(/C=C2\C(=N)N3N=C(S(C)(=O)=O)SC3=NC2=O)cc(OC)c1OCCOc1ccc(C)cc1 | 5.03%
86 | C=CCN(c1ccccc1)S(=O)(=O)c1cccc(C(=O)N2CC(C)CC(C)C2)c1 (centres unmarked) | 0.0123%

Source: article PMC4336329 (PLoS ONE, 2015)
